{"source": "PubChem BioAssay AID1508642", "about": "(National Center for Advancing Translational Sciences (NCATS), 2021)", "note": "In all, about 43,000 compounds went through this assay and about 200 (0.47%) were called active. Another 12% or so got no clear call; they are omitted. Calls follow the shape of the dose curve; as a rule, active = well fitted cell-killing curve with a large enough effect; inconclusive = small, poorly fitted or top-dose-only effect, or effect the other way; inactive = flat fitted curve, though single readings scatter. Some of the results follow. % is scaled to controls: 0 for no effect and ±100 for the full control effect."}
{"test": "Cell viability qHTS assay in S16 Pmp22-F2sN cells; also: nearly all actives have a fitted effect of over 65% in size", "settings": "S16 Pmp22-F2sN Schwann cells (luciferase reporters placed in the Pmp22 gene) viability, CellTiter-Glo, 24 h; series mostly up to 57.5 µM; activity change, negative = cytotoxicity: at the top concentration", "how_it_was_run": "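Luminescence from CellTiter-Glo, read by CCD camera after a 15 min room-temperature incubation, served as the viability signal. Reporter Schwann cells (S16 Pmp22-F2sN) had been treated with pin-transferred compounds for 24 h at 37C.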"}
{"smiles": "COc1ccc(-c2c(C)nn3c4c(cnc23)C(=O)CC(c2ccc(C)cc2)C4)cc1", "note": "(configuration not stated)", "activity change, negative = cytotoxicity": "inactive: 2.07%"}
{"smiles": "CCCCn1c(-c2ccc(S(=O)(=O)N3CCOCC3)cc2)csc1=Nc1ccccc1", "activity change, negative = cytotoxicity": "inactive: 11.1%"}
{"smiles": "Cn1c(C(=O)NCc2ccc(F)cc2)cc2c(=O)n(C)c3ccccc3c21", "activity change, negative = cytotoxicity": "inactive: 5.43%"}
{"smiles": "CCCn1c(=O)c2sccc2n2c(CCCC(=O)N3CCN(c4ccccc4)CC3)nnc12", "activity change, negative = cytotoxicity": "inactive: 3.73%"}
{"smiles": "COc1ccc(CCNC(=O)Cn2nnc(-c3ccc(C(F)(F)F)cc3)n2)cc1OC", "activity change, negative = cytotoxicity": "inactive: 3.18%"}
{"smiles": "CCS(=O)(=O)c1ncc(N(Cc2ccco2)Cc2sccc2C)c(C(=O)Nc2cc(C)ccc2C)n1", "activity change, negative = cytotoxicity": "inactive: 0.336%"}
{"smiles": "Cc1ccccc1NS(=O)(=O)c1ccc2[nH]cc(C(=O)N3CCCC3)c(=O)c2c1", "activity change, negative = cytotoxicity": "inactive: -6.88%"}
{"smiles": "Cc1nc2ccn(Cc3cccnc3)c(=O)c2cc1C(=O)Nc1ccc(OC(F)(F)F)cc1", "activity change, negative = cytotoxicity": "inactive: -15%"}
{"smiles": "COCCn1c(SCC(=O)Nc2ccc(F)c(Cl)c2)nc2c(oc3ccccc32)c1=O", "activity change, negative = cytotoxicity": "inactive: -24.5%"}
{"smiles": "COc1ccc(C(=O)NCCc2sc(-c3cccc(F)c3)nc2C)cc1", "activity change, negative = cytotoxicity": "inactive: -3.63%"}
{"smiles": "Cc1cccc(CCn2c(=O)c3ccccc3n(Cc3cccc(F)c3)c2=O)c1", "activity change, negative = cytotoxicity": "inactive: 28.8%"}
{"smiles": "CC1CCc2nc(NC(=O)COc3ccc(C(C)(C)C)cc3)sc2C1", "note": "(configuration not stated)", "activity change, negative = cytotoxicity": "inactive: -3.12%"}
{"smiles": "CC(=O)c1cccc(NC(=O)CCS(=O)(=O)c2cc(Br)cc3c2N(C(=O)C2CC2)CC3)c1", "activity change, negative = cytotoxicity": "inactive: 0.833%"}
{"smiles": "CCCC(=O)N1CC(=O)Nc2ccc(Cl)cc2C1c1ccc(F)cc1", "note": "(configuration not stated)", "activity change, negative = cytotoxicity": "inactive: -4.9%"}
{"smiles": "CC(=O)N1CCCc2cc(S(=O)(=O)N3CCC(C(=O)NCCC(C)C)CC3)ccc21", "activity change, negative = cytotoxicity": "inactive: 10.6%"}
{"smiles": "O=C(NC1CC(=O)N(c2ccc(F)cc2)C1)c1cc2ccccc2o1", "note": "(configuration not stated)", "activity change, negative = cytotoxicity": "inactive: -7.5%"}
{"smiles": "Cc1nc2c(C(=O)NCc3ccccc3Cl)cnn2c(C)c1Cc1c(F)cccc1Cl", "activity change, negative = cytotoxicity": "inactive: -6.66%"}
{"smiles": "CCOC(=O)c1nnc2c(-c3ccc(OC)cc3)c(C)nn2c1N", "activity change, negative = cytotoxicity": "inactive: 21.9%"}
{"smiles": "CN1CCN(C(c2ccccc2)c2sc3nc(-c4ccco4)nn3c2O)CC1", "note": "(configuration not stated)", "activity change, negative = cytotoxicity": "inactive: -2.18%"}
{"smiles": "CC(=O)c1sc2c(c1C)c(=O)n(-c1ccc(Cl)cc1)c(=O)n2Cc1ccc(Cl)cc1", "activity change, negative = cytotoxicity": "inactive: -17.8%"}
{"smiles": "Cc1cc(C)c(Cn2c(C)c(CNCCCc3ccccc3)c(C(=O)O)c2C)c(C)c1", "activity change, negative = cytotoxicity": "inactive: -9.95%"}
{"smiles": "CCOC(=O)c1c(NC(=O)c2noc3c2CC(C(C)(C)C)CC3)sc2c1CCCC2", "note": "(configuration not stated)", "activity change, negative = cytotoxicity": "inactive: -0.655%"}
{"smiles": "Cc1ccc(C)c(N2CCN(C(=O)CN3C(=O)COc4ccc(S(=O)(=O)N5CCCCCC5)cc43)CC2)c1", "activity change, negative = cytotoxicity": "inactive: 6.68%"}
{"smiles": "CCOC(=O)c1ccc(NC(=O)C2Cc3ccccc3CN2S(=O)(=O)c2ccc(Cl)cc2)cc1", "note": "(configuration not stated)", "activity change, negative = cytotoxicity": "inactive: -3.36%"}
{"smiles": "O=C(NCC(c1cccs1)S(=O)(=O)c1cccs1)c1ccccc1", "note": "(configuration not stated)", "activity change, negative = cytotoxicity": "inactive: -7.31%"}
{"smiles": "Cc1cc(Br)ccc1NC(=O)CCS(=O)(=O)c1cccc2nonc12", "activity change, negative = cytotoxicity": "inactive: 13%"}
{"smiles": "CCOC(=O)N1CCN(S(=O)(=O)N2CCCC(C(=O)NCc3cccc(OC)c3)C2)CC1", "note": "(configuration not stated)", "activity change, negative = cytotoxicity": "inactive: -2.2%"}
{"smiles": "CCC1CN(C(=O)N2CCC(C(=O)NCc3ccc(C)o3)CC2)c2cc(C)ccc2O1", "note": "(configuration not stated)", "activity change, negative = cytotoxicity": "inactive: 3.77%"}
{"smiles": "CCOC(=O)c1cc2c(=O)n3ccccc3nc2n(CC2CCCO2)c1=NC(=O)c1cccc(C(F)(F)F)c1", "note": "(configuration not stated)", "activity change, negative = cytotoxicity": "inactive: 1.26%"}
{"smiles": "CC(=O)N1CCC(N(Cc2ccco2)C(=O)Nc2cccc(C)c2)CC1", "activity change, negative = cytotoxicity": "inactive: -9.61%"}
{"smiles": "Cc1cccc(NC(=O)c2cnn(-c3ccccc3)c2-n2cccc2)c1C", "activity change, negative = cytotoxicity": "inactive: -19.1%"}
{"smiles": "COc1cccc(CNC(=O)c2cc3cccc4c3n2CC(C)S4)c1OC", "note": "(configuration not stated)", "activity change, negative = cytotoxicity": "inactive: -9.22%"}
{"smiles": "C#CCn1c(COc2ccccc2C)nc2ccccc21", "activity change, negative = cytotoxicity": "inactive: 0.146%"}
{"smiles": "Cc1cccc(N(C)C(=O)CN2C(=O)COc3ccc(S(=O)(=O)N4CCCCCC4)cc32)c1", "activity change, negative = cytotoxicity": "inactive: 1.71%"}
{"smiles": "Cn1c(CNC(=O)CSc2n[nH]c(-c3ccccc3Cl)n2)nc2ccccc21", "activity change, negative = cytotoxicity": "inactive: 4.42%"}
{"smiles": "COc1cc(OC)c(OC)cc1CNCCSc1nnnn1-c1ccccc1", "activity change, negative = cytotoxicity": "inactive: 3.68%"}
{"smiles": "COc1cc2c(=O)c(S(=O)(=O)c3ccc(F)cc3)cn(Cc3ccccc3C)c2cc1OC", "activity change, negative = cytotoxicity": "inactive: 16.9%"}
{"smiles": "Cc1ccc(-c2noc(-c3ccc(N4CCC(C)CC4)c([N+](=O)[O-])c3)n2)cc1", "activity change, negative = cytotoxicity": "inactive: 3.97%"}
{"smiles": "CCOc1cccc2cc(-c3cn4c(n3)sc3cc(C)ccc34)c(=O)oc12", "activity change, negative = cytotoxicity": "inactive: 1.91%"}
{"smiles": "COc1ccc(OCc2nc3ccccc3n2C(C)c2ccccc2)cc1", "note": "(configuration not stated)", "activity change, negative = cytotoxicity": "inactive: -0.296%"}
{"smiles": "Cc1ccnc(NS(=O)(=O)c2ccc(NC(=O)C(C)(C)Oc3ccc(Cl)cc3)cc2)n1", "activity change, negative = cytotoxicity": "inactive: -18.5%"}
{"smiles": "CCOc1ccccc1NC(=O)CSc1nc2c(c(=O)[nH]1)CCC2", "activity change, negative = cytotoxicity": "inactive: -0.79%"}
{"smiles": "O=C(Nc1ccc(Cl)cc1F)c1oc(=O)c2ccccc2c1-c1ccccc1", "activity change, negative = cytotoxicity": "inactive: 10.3%"}
{"smiles": "O=C(Cc1ccccc1)N(Cc1cccnc1)c1nc2c(F)cccc2s1", "activity change, negative = cytotoxicity": "inactive: -22%"}
{"smiles": "O=C(NCc1ccc(Cl)cc1)c1ccc(CSCc2cccc(Cl)c2)o1", "activity change, negative = cytotoxicity": "inactive: -26.2%"}
{"smiles": "Cc1ccccc1OC(=O)c1snnc1C", "activity change, negative = cytotoxicity": "inactive: 1.84%"}
{"smiles": "CCOc1cc(C2Nc3ccccc3-c3nnc(SCc4ccccc4)nc3O2)ccc1OC", "note": "(configuration not stated)", "activity change, negative = cytotoxicity": "inactive: -12.9%"}
{"smiles": "Cc1cc(Br)ccc1NC(=O)C(Cc1ccccc1)NS(=O)(=O)c1ccc(Br)s1", "note": "(configuration not stated)", "activity change, negative = cytotoxicity": "inactive: 16%"}
{"smiles": "CCC(C(=O)Nc1ccc(C(=O)OC)cc1)n1nc(-c2ccc(C)cc2)c2c(c1=O)CCCC2", "note": "(configuration not stated)", "activity change, negative = cytotoxicity": "inactive: -19.5%"}
{"smiles": "Nc1nc(Nc2cccc(C(F)(F)F)c2)sc1C(=O)c1ccccc1", "activity change, negative = cytotoxicity": "inactive: 9.77%"}
{"smiles": "Cc1cc(C)c2c(CC(=O)Nc3ccc(S(=O)(=O)N4CCCC(C)C4)cc3)coc2c1", "note": "(configuration not stated)", "activity change, negative = cytotoxicity": "inactive: -16.5%"}
{"smiles": "Cc1ccc(OCC(=O)Nc2cccc(OCc3cc(=O)n4ccccc4n3)c2)cc1C", "activity change, negative = cytotoxicity": "inactive: -1.25%"}
{"smiles": "O=C(Nc1ccc(Br)cc1)C1CCCN(S(=O)(=O)c2ccc(Br)s2)C1", "note": "(configuration not stated)", "activity change, negative = cytotoxicity": "inactive: 8.9%"}
{"smiles": "CCc1ccccc1NC(=O)C(CC)Sc1ncnc2c1sc1ccccc12", "note": "(configuration not stated)", "activity change, negative = cytotoxicity": "inactive: 5.94%"}
{"smiles": "O=C(CCCCCn1c(=O)[nH]c2ccccc2c1=O)NCc1cccc(Cl)c1", "activity change, negative = cytotoxicity": "inactive: 0.665%"}
{"smiles": "Cn1c(=O)c2c(SCC(=O)N3CCc4ccccc43)nc(-c3cccc(F)c3)nc2n(C)c1=O", "activity change, negative = cytotoxicity": "inactive: 0.992%"}
{"smiles": "CCOc1ccccc1CNC(=O)C1CCN(S(=O)(=O)c2cccc3nonc23)CC1", "activity change, negative = cytotoxicity": "inactive: 8%"}
{"smiles": "O=c1[nH]c2ccc(NCc3ccc(-c4cccc(Cl)c4)o3)cc2[nH]1", "activity change, negative = cytotoxicity": "inactive: -22.3%"}
{"smiles": "CCOc1ccc(S(=O)(=O)N2CCN(c3cc(Cl)ccc3Cl)CC2)c2ccccc12", "activity change, negative = cytotoxicity": "inactive: 9.06%"}
{"smiles": "CCN(c1ccccc1)S(=O)(=O)c1cc(-c2onc(C)c2C)ccc1OC", "activity change, negative = cytotoxicity": "inactive: -26.3%"}
{"smiles": "Cc1ccc(C)c(Cn2c(C(C)NC(=O)c3ccc(F)cc3)nc3ccccc32)c1", "note": "(configuration not stated)", "activity change, negative = cytotoxicity": "inactive: -2.13%"}
{"smiles": "Cc1c2cnn(CC(=O)N3CCN(c4ccccc4)CC3)c(=O)c2c(C)n1Cc1ccc(F)cc1", "activity change, negative = cytotoxicity": "inactive: -20%"}
